We go through one molecule from PMC10735225.

Common to all, as to assay: co-IP; lysates of transfected HEK293T cells (Pierce IP Lysis Buffer); 2 ug anti-Myc or anti-FLAG antibody, Protein A/G agarose; western blot
One experiment deals with T1, Myc-tagged DNAI2 (mouse) (UniProt A2AC93).
T1 sequence: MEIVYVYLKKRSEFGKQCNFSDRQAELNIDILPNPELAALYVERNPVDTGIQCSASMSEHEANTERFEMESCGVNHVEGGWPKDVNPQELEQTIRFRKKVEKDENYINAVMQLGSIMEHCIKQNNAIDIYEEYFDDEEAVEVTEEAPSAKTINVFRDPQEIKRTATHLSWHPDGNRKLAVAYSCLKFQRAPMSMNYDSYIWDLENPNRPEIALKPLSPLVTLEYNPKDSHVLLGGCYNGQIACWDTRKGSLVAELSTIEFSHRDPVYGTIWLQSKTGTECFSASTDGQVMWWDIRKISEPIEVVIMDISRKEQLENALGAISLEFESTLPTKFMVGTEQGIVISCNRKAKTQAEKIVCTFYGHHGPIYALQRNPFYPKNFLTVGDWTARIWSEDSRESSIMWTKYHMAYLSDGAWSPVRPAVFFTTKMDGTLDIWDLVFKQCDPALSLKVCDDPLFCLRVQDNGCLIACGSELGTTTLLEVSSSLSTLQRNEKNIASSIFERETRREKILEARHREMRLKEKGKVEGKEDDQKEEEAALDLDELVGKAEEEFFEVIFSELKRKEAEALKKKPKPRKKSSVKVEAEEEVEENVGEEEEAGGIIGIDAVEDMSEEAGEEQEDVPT

A further experiment has as its target T2, Myc-tagged SPAG6 (mouse) (UniProt Q9JLI7).
T2 sequence: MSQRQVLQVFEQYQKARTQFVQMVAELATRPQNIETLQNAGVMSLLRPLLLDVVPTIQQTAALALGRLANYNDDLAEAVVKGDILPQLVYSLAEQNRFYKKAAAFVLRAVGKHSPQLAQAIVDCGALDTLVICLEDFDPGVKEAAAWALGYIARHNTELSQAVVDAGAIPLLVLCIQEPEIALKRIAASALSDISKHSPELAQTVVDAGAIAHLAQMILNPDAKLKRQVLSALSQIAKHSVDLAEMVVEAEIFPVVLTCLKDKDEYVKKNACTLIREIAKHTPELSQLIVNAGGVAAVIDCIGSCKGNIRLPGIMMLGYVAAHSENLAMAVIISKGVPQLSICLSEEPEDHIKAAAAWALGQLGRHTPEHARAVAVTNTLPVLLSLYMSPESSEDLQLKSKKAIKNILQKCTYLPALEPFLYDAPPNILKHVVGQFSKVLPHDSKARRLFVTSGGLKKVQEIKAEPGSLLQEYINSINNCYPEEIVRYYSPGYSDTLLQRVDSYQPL

In another experiment the target is T3, Myc-tagged DRC2 (mouse) (UniProt Q8VHI7).
T3 sequence: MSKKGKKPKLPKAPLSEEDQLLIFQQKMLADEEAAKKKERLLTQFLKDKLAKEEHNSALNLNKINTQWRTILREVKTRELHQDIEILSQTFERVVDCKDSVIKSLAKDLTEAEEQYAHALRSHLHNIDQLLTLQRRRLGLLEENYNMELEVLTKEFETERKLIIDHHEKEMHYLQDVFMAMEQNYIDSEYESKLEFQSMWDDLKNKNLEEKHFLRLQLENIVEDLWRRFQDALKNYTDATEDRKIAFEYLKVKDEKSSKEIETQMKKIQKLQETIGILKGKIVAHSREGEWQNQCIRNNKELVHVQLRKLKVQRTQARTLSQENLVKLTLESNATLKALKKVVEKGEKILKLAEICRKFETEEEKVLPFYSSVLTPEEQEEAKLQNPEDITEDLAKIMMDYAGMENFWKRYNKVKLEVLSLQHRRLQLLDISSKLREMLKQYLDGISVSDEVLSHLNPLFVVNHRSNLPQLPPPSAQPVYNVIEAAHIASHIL

Experiment [1] has as its target T4, Myc-tagged SPATA6 (mouse) (UniProt Q3U6K5).
T4 sequence: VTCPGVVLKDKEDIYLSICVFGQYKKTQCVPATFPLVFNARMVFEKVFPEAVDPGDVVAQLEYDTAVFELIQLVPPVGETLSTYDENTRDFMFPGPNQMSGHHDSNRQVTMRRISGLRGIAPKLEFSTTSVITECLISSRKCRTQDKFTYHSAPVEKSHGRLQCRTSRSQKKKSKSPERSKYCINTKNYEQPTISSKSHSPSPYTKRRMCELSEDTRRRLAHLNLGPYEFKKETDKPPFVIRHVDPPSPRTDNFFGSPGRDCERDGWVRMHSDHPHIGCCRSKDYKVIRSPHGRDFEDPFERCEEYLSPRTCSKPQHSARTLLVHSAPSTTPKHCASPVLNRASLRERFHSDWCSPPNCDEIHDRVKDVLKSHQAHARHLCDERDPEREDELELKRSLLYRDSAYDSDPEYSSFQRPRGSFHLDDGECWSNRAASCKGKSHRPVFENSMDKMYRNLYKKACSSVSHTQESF

For experiment [2], the target named is T5, Myc-tagged DNALI1 (mouse) (UniProt Q8BVN8).
T5 sequence: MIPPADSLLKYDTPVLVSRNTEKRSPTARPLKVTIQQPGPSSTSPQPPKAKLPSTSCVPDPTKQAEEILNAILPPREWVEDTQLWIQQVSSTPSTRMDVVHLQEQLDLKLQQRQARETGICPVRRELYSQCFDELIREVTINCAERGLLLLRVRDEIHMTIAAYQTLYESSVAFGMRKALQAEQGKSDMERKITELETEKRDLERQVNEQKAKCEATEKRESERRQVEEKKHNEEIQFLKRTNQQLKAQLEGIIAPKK

No constants are given. Whether binding was seen depends on the method and setting. Binding seen in cells or lysates may run through a third protein. Some binding calls cover weakened binding; strength is not graded here. Sequences can lack the tags named with a protein.

B1: FLAG-tagged CFAP52 (cilia and flagella associated protein 52) (protein, UniProt Q5F201-1 1-620)
chain: MEEQVLPELDVAELELQAVIGFNGHVPNGLKCHPDQEHLIYPLGCTVLIQAINTNEQNFLHGHGNNVSCVTISKEGDYIASGQVTFMGFKADIILWDFKKRELIARLSLHKGKIEALAFSPNDLYLVSLGGPDDGSVVVWSIAKRDAICGSPAAGLNVGNATSVVFSRCRDEMFVTAGNGTIRVWELDLPNRKIWPTECQTGQMKRIVLSTGMADDDSFFYLGTTTGDILKMNPKTKLLADTGPVKDKFSLGVSALRCLKMGGLLVGSGAGLLIFCKSPSYKPIKKVQLQGGITSITLRGEGHQFFVGTEESHIYRVNFTDFKETLIATCHFEAVQDIVFPFGTAELFATCAKKDIRVWHTMSKRELLRITVPNMTCHGIDFMRDGKSIISAWDDGKIRAFAPESGRLMYTINSAHRIGVTAIATTSDCKRIISGGGEGEVRVWQVGCQTQKLEEALKEHKSSVSCIRVKKNNEECVTASTDGTCIIWDLVRLRRNQMILANTLFQCVCYHPEEFQIITSGTDRKIAYWEVFDGSVIRELEGSLSGSINGMDITQEGGHFVTGGHDHLVKVWDYNEGEVTHVGVGHSGNIMAMRISPGNQYIVSVSADGAILRWKYPFAS
Take B1: the binding entry is “binds” in the experiment with Myc-tagged DNAI2 (mouse); “no binding” with Myc-tagged SPAG6 (mouse); “no binding” with Myc-tagged DRC2 (mouse); “binds” in experiment [1]; “no binding” in experiment [2].
